Laboratory results as given in PubChem BioAssay (NCATS).
Inconclusive results, whose numbers are uncertain, are shown with a selection of clear calls. Potencies of inconclusive entries are left out as doubtful fits. Active and inactive are the calls of the source. Calls come from the whole dose curve; as a rule, active = well fitted inhibition curve with a large enough effect; inconclusive = small, poorly fitted or top-dose-only effect; inactive = no such curve, though single readings can be large or run the other way.

Tests used:
[1] = target: Rap guanine nucleotide exchange factor 3 (Homo sapiens) (UniProt O95398); test: Confirmatory qHTS for antagonist of cAMP-regulated guanine nucleotide exchange factor 3 (EPAC1) (AID 1645880); conditions: EPAC1 Rap1B-BODIPY-GDP exchange, fluorescence; series mostly up to 115 µM; note: nearly all actives have a fitted effect of over 55% in size
Chain of UniProt O95398 (O95398 whole entry, looked up): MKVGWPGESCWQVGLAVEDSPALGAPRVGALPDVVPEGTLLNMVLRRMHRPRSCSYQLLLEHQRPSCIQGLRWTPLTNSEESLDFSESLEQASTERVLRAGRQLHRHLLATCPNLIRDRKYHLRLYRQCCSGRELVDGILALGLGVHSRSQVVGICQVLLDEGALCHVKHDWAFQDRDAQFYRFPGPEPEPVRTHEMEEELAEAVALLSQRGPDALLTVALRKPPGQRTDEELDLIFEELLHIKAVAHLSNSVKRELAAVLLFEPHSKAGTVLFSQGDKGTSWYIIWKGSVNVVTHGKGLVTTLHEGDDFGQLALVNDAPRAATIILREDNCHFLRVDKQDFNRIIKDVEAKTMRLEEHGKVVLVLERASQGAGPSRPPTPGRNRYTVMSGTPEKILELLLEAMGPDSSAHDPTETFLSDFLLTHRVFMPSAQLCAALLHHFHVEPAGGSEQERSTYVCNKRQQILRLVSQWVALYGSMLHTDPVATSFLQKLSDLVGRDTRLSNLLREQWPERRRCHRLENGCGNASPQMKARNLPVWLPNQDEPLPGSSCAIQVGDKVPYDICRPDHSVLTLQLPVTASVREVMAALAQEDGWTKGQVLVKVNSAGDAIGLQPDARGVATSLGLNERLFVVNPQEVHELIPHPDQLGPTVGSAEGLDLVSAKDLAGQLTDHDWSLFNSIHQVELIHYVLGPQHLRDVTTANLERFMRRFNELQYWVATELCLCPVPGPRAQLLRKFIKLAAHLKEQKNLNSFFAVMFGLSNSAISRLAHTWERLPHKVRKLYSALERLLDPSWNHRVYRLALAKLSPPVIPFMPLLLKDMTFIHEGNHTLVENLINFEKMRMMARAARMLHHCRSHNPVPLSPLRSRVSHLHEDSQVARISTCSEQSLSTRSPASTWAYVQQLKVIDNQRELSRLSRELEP
Method in brief: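 Nucleotide exchange uses 100 nM EPAC1, 250 nM RAP1B-BODIPY-GDP and 50 uM GDP, with compounds in a concentration-titration series. After 5 min at room temperature, fluorescence (480 nm ex/540 nm em) is read every 5 min for 30 min. Data are normalized to control ATA and DMSO.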

[2] = target: Rap guanine nucleotide exchange factor 4 (Homo sapiens) (UniProt Q8WZA2); test: Confirmatory qHTS for antagonist of cAMP-regulated guanine nucleotide exchange factor 4 (EPAC2) (AID 1645885); conditions: activity change, negative = inhibition: at 12.7 µM (top of the series) unless noted; note: nearly all actives have a fitted effect of over 25% in size
Chain of UniProt Q8WZA2 (Q8WZA2 whole entry, looked up): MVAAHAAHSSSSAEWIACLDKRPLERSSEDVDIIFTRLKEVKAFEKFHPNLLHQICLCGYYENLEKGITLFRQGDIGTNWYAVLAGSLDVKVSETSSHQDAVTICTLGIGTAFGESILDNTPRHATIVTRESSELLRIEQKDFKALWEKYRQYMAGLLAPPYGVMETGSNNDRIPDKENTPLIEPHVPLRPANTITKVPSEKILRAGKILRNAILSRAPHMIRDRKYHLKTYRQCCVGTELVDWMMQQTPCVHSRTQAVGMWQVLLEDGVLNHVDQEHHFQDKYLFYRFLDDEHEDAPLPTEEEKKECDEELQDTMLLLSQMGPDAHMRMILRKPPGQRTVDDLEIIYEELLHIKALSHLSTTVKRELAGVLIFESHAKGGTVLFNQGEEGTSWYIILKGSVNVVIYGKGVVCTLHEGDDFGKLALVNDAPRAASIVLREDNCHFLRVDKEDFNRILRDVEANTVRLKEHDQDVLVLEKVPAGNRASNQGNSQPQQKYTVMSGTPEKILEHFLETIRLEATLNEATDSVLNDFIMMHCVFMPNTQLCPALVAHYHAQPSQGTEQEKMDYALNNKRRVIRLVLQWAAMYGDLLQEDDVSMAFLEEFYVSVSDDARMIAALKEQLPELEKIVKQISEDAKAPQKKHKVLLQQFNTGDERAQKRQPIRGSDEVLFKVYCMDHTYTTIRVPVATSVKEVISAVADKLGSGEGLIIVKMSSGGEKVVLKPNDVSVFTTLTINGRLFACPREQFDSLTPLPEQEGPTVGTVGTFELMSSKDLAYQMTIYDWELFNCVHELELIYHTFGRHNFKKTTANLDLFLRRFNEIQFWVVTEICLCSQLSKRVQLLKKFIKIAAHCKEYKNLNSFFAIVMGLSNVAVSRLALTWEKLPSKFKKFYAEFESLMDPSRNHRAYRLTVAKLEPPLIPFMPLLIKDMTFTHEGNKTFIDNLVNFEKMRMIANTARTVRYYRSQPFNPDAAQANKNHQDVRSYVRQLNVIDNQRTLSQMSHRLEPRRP
Potency is the fitted concentration of half-maximal effect; tags give direction and shape of the fitted curve.

SMILES | Potency [1] | Potency [2]
CC(C)CCOP(=O)(c1ccc(N(C)C)cc1)C(O)c1ccc(Cl)cc1Cl (stereo unspecified) | inconclusive [inhibitor, partial curve, poor fit] | active: 19 µM
C=Cc1ccc(Cn2nc(-c3ccccc3)ccc2=O)cc1 | inconclusive [inhibitor, partial curve, poor fit] | inactive
COc1ccccc1C1CC(=O)Oc2cc(C)cc(C)c21 (stereo unspecified) | inactive | inconclusive [inhibitor, partial curve]
COc1ccc(OCC(=O)Nc2ccccc2N2CCCCC2)cc1 | inactive | inactive
CN(CC(=O)Nc1ccccc1Cl)C(=O)c1ccc(-c2cccc(C(F)(F)F)c2)o1 | inconclusive [inhibitor, partial curve] | inconclusive [inhibitor, partial curve]
CC(C)OP(=O)(OC(C)C)C1(NS(=O)(=O)c2ccc(Cl)cc2)C=C(Cl)C(=O)C(Cl)=C1 | inconclusive [inhibitor, partial curve] | inconclusive [inhibitor, partial curve]
CC1CCCCN1S(=O)(=O)c1ccc(C(=O)Nc2nnc(-c3ccccc3Cl)o2)cc1 (stereo unspecified) | inconclusive [inhibitor, partial curve] | inactive
Cc1cccc(NC(=S)N2CCN(S(=O)(=O)c3cccc(F)c3)CC2)c1 | inconclusive [inhibitor, partial curve, poor fit] | inconclusive [inhibitor, partial curve, poor fit]
Fc1ccc2c(-c3cccc(C(F)(F)F)c3)c(-c3ccccc3)ncc2c1 | inconclusive [inhibitor, partial curve] | inconclusive [inhibitor, full curve]
O=C1CC(c2ccccc2)=NN1c1nc(-c2ccccc2)cs1 | inconclusive [inhibitor, partial curve, poor fit] | inactive
CCCCC[C@H](C)N1C[C@@H](COCc2ccccc2)Oc2cc(N3CC[C@H](N(C)C)C3)ccc2S1(=O)=O | inconclusive [inhibitor, partial curve] | inconclusive [inhibitor, partial curve]
CNC(=O)c1ccc2snnc2c1 | inactive | inconclusive [inhibitor, single point]
CS(=O)(=O)c1ccc2c(c1)SC1=NC(=O)/C(=C/c3ccco3)C(=N)N12 | active: 12 µM | inconclusive [inhibitor, single point]
CC(c1ccon1)N(C)Cc1cn(C)nc1-c1cccc(Cl)c1 (stereo unspecified) | inconclusive [inhibitor, partial curve, poor fit] | inconclusive [inhibitor, full curve]
CC1CCCN(C(=O)c2cccc(S(=O)(=O)Nc3cc(C(F)(F)F)ccc3Cl)c2)C1 (stereo unspecified) | active: 21.3 µM | active: 26.9 µM
CCCCCOC(=O)C1=C(C)Nc2nnnn2C1c1ccccc1Cl (stereo unspecified) | inconclusive [inhibitor, partial curve] | inconclusive [inhibitor, partial curve, poor fit]
Cc1cc2ccccc2n1CCNC(=O)C1CCCCC1 | inconclusive [inhibitor, full curve, poor fit] | active: 95.3 µM

SMILES | Potency [1] | Potency [2]
CCc1ccc(N=C2NC(=O)/C(=C/c3cc(Br)c(OCC(=O)O)c(OC)c3)S2)cc1 | inconclusive [inhibitor, full curve] | inactive
Cc1cc2[nH]c(=O)c(=O)[nH]c2cc1S(=O)(=O)Nc1cccc(Cl)c1 | active: 42.6 µM | inactive
NS(=O)(=O)c1ccc(NC(=O)c2cccc(N3C(=O)c4ccccc4C3=O)c2)cc1 | inconclusive [inhibitor, full curve] | inactive
Cc1ccc2nc(-c3ccccc3)c(Cc3cccc(F)c3)n2c1 | inconclusive [inhibitor, partial curve, poor fit] | active: 0.426 µM
CCc1cc(=O)oc2cc(C)cc(OCC(=O)N[C@@H](CSCc3ccccc3)C(=O)O)c12 | inconclusive [inhibitor, partial curve, poor fit] | inconclusive [inhibitor, partial curve]
O=C(O)c1ccccc1-c1ccccc1C(=O)Nc1ccc2c(c1)oc(=O)c1ccccc12 | active: 75.7 µM | inconclusive [inhibitor, partial curve]
CC(=O)C1=C(O)C2(C)c3c(O)c(C)c(O)c(C(C)=O)c3OC2CC1=O (stereo unspecified) | inconclusive [inhibitor, partial curve, poor fit] | inconclusive [inhibitor, single point]
Cc1ccc(C(C)C)c(OCc2ccc(C(=O)N/N=C/c3ccc(O)c(O)c3)cc2)c1 | active: 33.8 µM | inconclusive [inhibitor, partial curve, poor fit]
O=C(O)CN1C(=O)/C(=C\c2ccccc2OCc2ccc(Cl)cc2)SC1=S | active: 37.9 µM | active: 42.6 µM
Cc1nc(S/C(=C/c2ccc(-c3cc(Cl)ccc3C)o2)C(=O)O)n[nH]1 | active: 26.9 µM | inconclusive [inhibitor, full curve, poor fit]
CN(C)c1ccc(/C=C/c2cc[n+](C)c3ccccc23)cc1 | inconclusive [inhibitor, partial curve] | active: 49.4 µM
COc1cc(C(=O)N(C)CCOc2ccccc2)ccc1OCC(=O)Nc1cccc(C(F)(F)F)c1 | inconclusive [inhibitor, partial curve] | inconclusive [inhibitor, full curve]
C=CCn1c(SCc2cc([N+](=O)[O-])cc3c2OCOC3)nc2cc(C(=O)O)ccc2c1=O | active: 75.7 µM | inconclusive [inhibitor, partial curve, poor fit]
COc1cccc(-n2nnc3c(=O)n(C/C=C/c4ccccc4)cnc32)c1 | inactive | inactive
CCC(C(=O)O)N1C(=O)/C(=C/C(C)=C/c2ccccc2)SC1=S (stereo unspecified) | inconclusive [inhibitor, partial curve] | active: 75.7 µM
COc1ccc2oc(C(=O)Nc3ccc(N4CCOCC4)cc3)c(C)c2c1 | inconclusive [inhibitor, partial curve] | inactive
